From the supplement of paper PMC8728848
This is one part of the list.

How the values were obtained:
Assay in all cases: glycan array binding signal (z-score within array); higher = stronger binding
Settings in all cases: glycan notation: IUPAC condensed, linker removed
[1] = molecular target: Gal(a1-3)Gal(b1-4)GlcNAc(b1-3)GalNAc
How it was run: (§1)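 Negative Z-scores can be read as non-binding. The Z-score is calculated within each array and then averaged across arrays of one protein sequence at different concentrations or buffers and across linkers. Arrays, 3228 in all, were curated from the Consortium for Functional Glycomics database and kept only where the protein sequence was available.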

[2] = molecular target: Gal(a1-3)Gal(b1-4)GlcNAc(b1-6)GalNAc
How it was run: as §1

[3] = molecular target: Gal(a1-3)Gal(b1-4)[Fuc(a1-3)]GlcNAc
How it was run: as §1

[4] = molecular target: Gal(a1-3)Gal(b1-4)[Fuc(a1-3)]GlcNAc(b1-2)Man(a1-3)[Gal(a1-3)Gal(b1-4)[Fuc(a1-3)]GlcNAc(b1-2)Man(a1-6)]Man(b1-4)GlcNAc(b1-4)GlcNAc
How it was run: as §1

Gal(a1-3)GalNAc = molecular target: Gal(a1-3)GalNAc
How it was run: as §1

[5] = molecular target: Gal(a1-3)[Gal(a1-4)]Gal(b1-4)GlcNAc
How it was run: as §1

[6] = molecular target: Gal(a1-4)Gal(b1-3)GlcNAc(b1-2)Man(a1-3)[Gal(a1-4)Gal(b1-3)GlcNAc(b1-2)Man(a1-6)]Man(b1-4)GlcNAc(b1-4)GlcNAc
How it was run: as §1

Gal(a1-4)Gal(b1-4)Glc = molecular target: Gal(a1-4)Gal(b1-4)Glc
How it was run: as §1

Gal(a1-4)Gal(b1-4)GlcNAc = molecular target: Gal(a1-4)Gal(b1-4)GlcNAc
How it was run: as §1

[7] = molecular target: Gal(a1-4)Gal(b1-4)GlcNAc(b1-2)Man(a1-3)[Gal(a1-4)Gal(b1-4)GlcNAc(b1-2)Man(a1-6)]Man(b1-4)GlcNAc(b1-4)GlcNAc
How it was run: as §1

[8] = molecular target: Gal(a1-4)Gal(b1-4)GlcNAc(b1-3)Gal(b1-4)Glc
How it was run: as §1

Gal(a1-4)GlcNAc = molecular target: Gal(a1-4)GlcNAc
How it was run: as §1

Gal(a1-6)Glc = molecular target: Gal(a1-6)Glc
How it was run: as §1

Gal(b1-2)Gal = molecular target: Gal(b1-2)Gal
How it was run: as §1

Gal(b1-3)Gal = molecular target: Gal(b1-3)Gal
How it was run: as §1

Gal(b1-3)Gal(b1-4)GlcNAc = molecular target: Gal(b1-3)Gal(b1-4)GlcNAc
How it was run: as §1

[9] = molecular target: Gal(b1-3)Gal(b1-4)GlcNAc(b1-2)Man(a1-3)[Gal(b1-3)Gal(b1-4)GlcNAc(b1-2)Man(a1-6)]Man(b1-4)GlcNAc(b1-4)GlcNAc
How it was run: as §1

Gal(b1-3)GalNAc = molecular target: Gal(b1-3)GalNAc
How it was run: as §1

[10] = molecular target: Gal(b1-3)GalNAc(a1-3)[Fuc(a1-2)]Gal(b1-4)Glc
How it was run: as §1

[11] = molecular target: Gal(b1-3)GalNAc(a1-3)[Fuc(a1-2)]Gal(b1-4)GlcNAc
How it was run: as §1

[12] = molecular target: Gal(b1-3)GalNAc(b1-3)Gal(a1-4)Gal(b1-4)Glc
How it was run: as §1

[13] = molecular target: Gal(b1-3)GalNAc(b1-4)Gal(b1-4)Glc
How it was run: as §1

[14] = molecular target: Gal(b1-3)GalNAc(b1-4)[Neu5Ac(a2-3)]Gal(b1-4)Glc
How it was run: as §1

Gal(b1-3)GlcNAc = molecular target: Gal(b1-3)GlcNAc
How it was run: as §1

[15] = molecular target: Gal(b1-3)GlcNAc(a1-3)Gal(b1-4)GlcNAc
How it was run: as §1

[16] = molecular target: Gal(b1-3)GlcNAc(a1-6)Gal(b1-4)GlcNAc
How it was run: as §1

[17] = molecular target: Gal(b1-3)GlcNAc(b1-2)Man(a1-3)[Gal(b1-3)GlcNAc(b1-2)Man(a1-6)]Man(b1-4)GlcNAc(b1-4)GlcNAc
How it was run: as §1

[18] = molecular target: Gal(b1-3)GlcNAc(b1-2)Man(a1-3)[Gal(b1-3)GlcNAc(b1-2)Man(a1-6)]Man(b1-4)GlcNAc(b1-4)[Fuc(a1-6)]GlcNAc
How it was run: as §1

[19] = molecular target: Gal(b1-3)GlcNAc(b1-2)Man(a1-3)[GlcNAc(b1-4)][Gal(b1-3)GlcNAc(b1-2)Man(a1-6)]Man(b1-4)GlcNAc(b1-4)GlcNAc
How it was run: as §1

[20] = molecular target: Gal(b1-3)GlcNAc(b1-2)[Gal(b1-3)GlcNAc(b1-6)]Man(a1-6)[Gal(b1-3)GlcNAc(b1-2)Man(a1-3)]Man(b1-4)GlcNAc(b1-4)GlcNAc
How it was run: as §1

[21] = molecular target: Gal(b1-3)GlcNAc(b1-3)Gal(b1-3)GlcNAc
How it was run: as §1

[22] = molecular target: Gal(b1-3)GlcNAc(b1-3)Gal(b1-4)Glc
How it was run: as §1

[23] = molecular target: Gal(b1-3)GlcNAc(b1-3)Gal(b1-4)GlcNAc
How it was run: as §1

[24] = molecular target: Gal(b1-3)GlcNAc(b1-3)Gal(b1-4)GlcNAc(b1-6)[Gal(b1-3)GlcNAc(b1-3)]Gal(b1-4)Glc
How it was run: as §1

[25] = molecular target: Gal(b1-3)GlcNAc(b1-3)Gal(b1-4)[Fuc(a1-3)]GlcNAc(b1-6)[Gal(b1-3)GlcNAc(b1-3)]Gal(b1-4)Glc
How it was run: as §1

[26] = molecular target: Gal(b1-3)GlcNAc(b1-3)GalNAc
How it was run: as §1

[27] = molecular target: Gal(b1-3)GlcNAc(b1-6)Gal(b1-4)GlcNAc
How it was run: as §1

[28] = molecular target: Gal(b1-3)GlcNAc(b1-6)GalNAc
How it was run: as §1

B1: Strep tagII-anxA1 (Homo sapiens), P04083 (protein)
chain: MAMVSEFLKQAWFIENEEQEYVQTVKSSKGGPGSAVSPYPTFNPSSDVAALHKAIMVKGVDEATIIDILTKRNNAQRQQIKAAYLQETGKPLDETLKKALTGHLEEVVLALLKTPAQFDADELRAAMKGLGTDEDTLIEILASRTNKEIRDINRVYREELKRDLAKDITSDTSGDFRNALLSLAKGDRSEDFGVNEDLADSDARALYEAGERRKGTDVNVFNTILTTRSYPQLRRVFQKYTKYSKHDMNKVLDLELKGDIEKCLTAIVKCATSKPAFFAEKLHQAMKGVGTRHKALIRIMVSRSEIDMNDIKAFYQKMYGISLCQAILDETKGDYEKILVALCGGN
glycan array binding signal (z-score) [1]: -0.559 | glycan array binding signal (z-score) [2]: -0.151 | glycan array binding signal (z-score) [3]: -0.27 | glycan array binding signal (z-score) [4]: 3.62 | glycan array binding signal (z-score) (Gal(a1-3)GalNAc): 0.115 | glycan array binding signal (z-score) [5]: 0.294 | glycan array binding signal (z-score) [6]: 0.56 | glycan array binding signal (z-score) (Gal(a1-4)Gal(b1-4)Glc): -0.567 | glycan array binding signal (z-score) (Gal(a1-4)Gal(b1-4)GlcNAc): -0.486 | glycan array binding signal (z-score) [7]: 0.154 | glycan array binding signal (z-score) [8]: -0.354 | glycan array binding signal (z-score) (Gal(a1-4)GlcNAc): -0.49 | glycan array binding signal (z-score) (Gal(a1-6)Glc): -0.03 | glycan array binding signal (z-score) (Gal(b1-2)Gal): -0.402 | glycan array binding signal (z-score) (Gal(b1-3)Gal): -0.548 | glycan array binding signal (z-score) (Gal(b1-3)Gal(b1-4)GlcNAc): 0.264 | glycan array binding signal (z-score) [9]: 0.155 | glycan array binding signal (z-score) (Gal(b1-3)GalNAc): -0.513 | glycan array binding signal (z-score) [10]: -0.278 | glycan array binding signal (z-score) [11]: -0.399 | glycan array binding signal (z-score) [12]: -0.44 | glycan array binding signal (z-score) [13]: -0.696 | glycan array binding signal (z-score) [14]: -0.336 | glycan array binding signal (z-score) (Gal(b1-3)GlcNAc): -0.082 | glycan array binding signal (z-score) [15]: -0.379 | glycan array binding signal (z-score) [16]: -0.44 | glycan array binding signal (z-score) [17]: 1.06 | glycan array binding signal (z-score) [18]: -0.167 | glycan array binding signal (z-score) [19]: 1.59 | glycan array binding signal (z-score) [20]: -0.255 | glycan array binding signal (z-score) [21]: -0.731 | glycan array binding signal (z-score) [22]: 0.663 | glycan array binding signal (z-score) [23]: -0.44 | glycan array binding signal (z-score) [24]: -0.601 | glycan array binding signal (z-score) [25]: -0.076 | glycan array binding signal (z-score) [26]: -0.63 | glycan array binding signal (z-score) [27]: -0.776 | glycan array binding signal (z-score) [28]: -0.114
